# From the supplement of paper PMC8728848
# The list shows a part of the results.
# Assays:
# Assay in all cases: glycan array binding signal (z-score within array); higher = stronger binding
# Conditions in all cases: glycan notation: IUPAC condensed, linker removed
# [1] = target: Gal(a1-4)Gal(b1-4)GlcNAc
# Summary of the method: (§1)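 Negative Z-scores can be read as non-binding. The Z-score is calculated within each array and then averaged across arrays of one protein sequence at different concentrations or buffers and across linkers. Arrays, 3228 in all, were curated from the Consortium for Functional Glycomics database and kept only where the protein sequence was available.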
# [2] = target: Gal(a1-4)Gal(b1-4)GlcNAc(b1-2)Man(a1-3)[Gal(a1-4)Gal(b1-4)GlcNAc(b1-2)Man(a1-6)]Man(b1-4)GlcNAc(b1-4)GlcNAc
# Summary of the method: as §1
# [3] = target: Gal(a1-4)Gal(b1-4)GlcNAc(b1-3)Gal(b1-4)Glc
# Summary of the method: as §1
# [4] = target: Gal(a1-4)GlcNAc
# Summary of the method: as §1
# [5] = target: Gal(a1-6)Glc
# Summary of the method: as §1
# [6] = target: Gal(b1-2)Gal
# Summary of the method: as §1
# [7] = target: Gal(b1-3)Gal
# Summary of the method: as §1
# [8] = target: Gal(b1-3)Gal(b1-4)GlcNAc
# Summary of the method: as §1
# [9] = target: Gal(b1-3)Gal(b1-4)GlcNAc(b1-2)Man(a1-3)[Gal(b1-3)Gal(b1-4)GlcNAc(b1-2)Man(a1-6)]Man(b1-4)GlcNAc(b1-4)GlcNAc
# Summary of the method: as §1
# [10] = target: Gal(b1-3)GalNAc
# Summary of the method: as §1
# [11] = target: Gal(b1-3)GalNAc(a1-3)[Fuc(a1-2)]Gal(b1-4)Glc
# Summary of the method: as §1
# [12] = target: Gal(b1-3)GalNAc(a1-3)[Fuc(a1-2)]Gal(b1-4)GlcNAc
# Summary of the method: as §1
# [13] = target: Gal(b1-3)GalNAc(b1-3)Gal(a1-4)Gal(b1-4)Glc
# Summary of the method: as §1
# [14] = target: Gal(b1-3)GalNAc(b1-4)Gal(b1-4)Glc
# Summary of the method: as §1
# [15] = target: Gal(b1-3)GalNAc(b1-4)[Neu5Ac(a2-3)]Gal(b1-4)Glc
# Summary of the method: as §1
# [16] = target: Gal(b1-3)GlcNAc
# Summary of the method: as §1
# [17] = target: Gal(b1-3)GlcNAc(a1-3)Gal(b1-4)GlcNAc
# Summary of the method: as §1
# [18] = target: Gal(b1-3)GlcNAc(a1-6)Gal(b1-4)GlcNAc
# Summary of the method: as §1
# [19] = target: Gal(b1-3)GlcNAc(b1-2)Man(a1-3)[Gal(b1-3)GlcNAc(b1-2)Man(a1-6)]Man(b1-4)GlcNAc(b1-4)GlcNAc
# Summary of the method: as §1
# [20] = target: Gal(b1-3)GlcNAc(b1-2)Man(a1-3)[Gal(b1-3)GlcNAc(b1-2)Man(a1-6)]Man(b1-4)GlcNAc(b1-4)[Fuc(a1-6)]GlcNAc
# Summary of the method: as §1
# [21] = target: Gal(b1-3)GlcNAc(b1-2)Man(a1-3)[GlcNAc(b1-4)][Gal(b1-3)GlcNAc(b1-2)Man(a1-6)]Man(b1-4)GlcNAc(b1-4)GlcNAc
# Summary of the method: as §1
# [22] = target: Gal(b1-3)GlcNAc(b1-2)[Gal(b1-3)GlcNAc(b1-6)]Man(a1-6)[Gal(b1-3)GlcNAc(b1-2)Man(a1-3)]Man(b1-4)GlcNAc(b1-4)GlcNAc
# Summary of the method: as §1
# [23] = target: Gal(b1-3)GlcNAc(b1-3)Gal(b1-3)GlcNAc
# Summary of the method: as §1
# [24] = target: Gal(b1-3)GlcNAc(b1-3)Gal(b1-4)Glc
# Summary of the method: as §1
# [25] = target: Gal(b1-3)GlcNAc(b1-3)Gal(b1-4)GlcNAc
# Summary of the method: as §1
# [26] = target: Gal(b1-3)GlcNAc(b1-3)Gal(b1-4)GlcNAc(b1-6)[Gal(b1-3)GlcNAc(b1-3)]Gal(b1-4)Glc
# Summary of the method: as §1
# [27] = target: Gal(b1-3)GlcNAc(b1-3)Gal(b1-4)[Fuc(a1-3)]GlcNAc(b1-6)[Gal(b1-3)GlcNAc(b1-3)]Gal(b1-4)Glc
# Summary of the method: as §1
# [28] = target: Gal(b1-3)GlcNAc(b1-3)GalNAc
# Summary of the method: as §1
# [29] = target: Gal(b1-3)GlcNAc(b1-6)Gal(b1-4)GlcNAc
# Summary of the method: as §1
# [30] = target: Gal(b1-3)GlcNAc(b1-6)GalNAc
# Summary of the method: as §1
# [31] = target: Gal(b1-3)GlcNAc6S
# Summary of the method: as §1
# [32] = target: Gal(b1-3)[Fuc(a1-4)]GlcNAc
# Summary of the method: as §1
# [33] = target: Gal(b1-3)[Fuc(a1-4)]GlcNAc(b1-2)Man(a1-3)[Gal(b1-3)[Fuc(a1-4)]GlcNAc(b1-2)Man(a1-6)]Man(b1-4)GlcNAc(b1-4)[Fuc(a1-6)]GlcNAc
# Summary of the method: as §1
# [34] = target: Gal(b1-3)[Fuc(a1-4)]GlcNAc(b1-3)Gal(b1-3)[Fuc(a1-4)]GlcNAc
# Summary of the method: as §1
# [35] = target: Gal(b1-3)[Fuc(a1-4)]GlcNAc(b1-3)Gal(b1-4)GlcNAc
# Summary of the method: as §1
# [36] = target: Gal(b1-3)[Fuc(a1-4)]GlcNAc(b1-3)Gal(b1-4)[Fuc(a1-3)]GlcNAc
# Summary of the method: as §1
# [37] = target: Gal(b1-3)[Fuc(a1-4)]GlcNAc(b1-6)GalNAc
# Summary of the method: as §1
# [38] = target: Gal(b1-3)[GlcNAc(b1-6)]GalNAc
# Summary of the method: as §1
# [39] = target: Gal(b1-3)[Neu5Ac(a2-6)]GalNAc
# Summary of the method: as §1
# [40] = target: Gal(b1-3)[Neu5Ac(a2-6)]GlcNAc(b1-6)Gal(b1-4)Glc
# Summary of the method: as §1
# [41] = target: Gal(b1-3)[Neu5Ac(b2-6)]GalNAc
# Summary of the method: as §1
# [42] = target: Gal(b1-4)Gal
# Summary of the method: as §1
# [43] = target: Gal(b1-4)GalNAc(a1-3)[Fuc(a1-2)]Gal(b1-4)GlcNAc
# Summary of the method: as §1
# [44] = target: Gal(b1-4)GalNAc(b1-3)[Fuc(a1-2)]Gal(b1-4)GlcNAc
# Summary of the method: as §1
# [45] = target: Gal(b1-4)Glc
# Summary of the method: as §1
binder,measurement,setting,value
CCL1 (Coprinopsis cinerea) (protein) MDTQAKPPAGRYVIYNRVLSPNGEKLALTYPGYQREALTLTPLHHSANQIWILNNWDATTSSLTPETARNTQVGWGSGNVPIVLPPGNYVWTLASSAGGYIIQDGGKTVYWNAGEAVANTKVSIGGDNGLQARWIFERV,glycan array binding signal (z-score),[1],-0.149
same,glycan array binding signal (z-score),[2],-0.123
same,glycan array binding signal (z-score),[3],-0.154
same,glycan array binding signal (z-score),[4],-0.164
same,glycan array binding signal (z-score),[5],-0.091
same,glycan array binding signal (z-score),[6],-0.13
same,glycan array binding signal (z-score),[7],-0.15
same,glycan array binding signal (z-score),[8],-0.151
same,glycan array binding signal (z-score),[9],-0.132
same,glycan array binding signal (z-score),[10],-0.163
same,glycan array binding signal (z-score),[11],-0.163
same,glycan array binding signal (z-score),[12],-0.15
same,glycan array binding signal (z-score),[13],-0.17
same,glycan array binding signal (z-score),[14],-0.172
same,glycan array binding signal (z-score),[15],-0.158
same,glycan array binding signal (z-score),[16],-0.15
same,glycan array binding signal (z-score),[17],-0.167
same,glycan array binding signal (z-score),[18],-0.169
same,glycan array binding signal (z-score),[19],-0.119
same,glycan array binding signal (z-score),[20],-0.121
same,glycan array binding signal (z-score),[21],-0.107
same,glycan array binding signal (z-score),[22],-0.145
same,glycan array binding signal (z-score),[23],-0.152
same,glycan array binding signal (z-score),[24],-0.112
same,glycan array binding signal (z-score),[25],-0.156
same,glycan array binding signal (z-score),[26],-0.145
same,glycan array binding signal (z-score),[27],0.276
same,glycan array binding signal (z-score),[28],-0.129
same,glycan array binding signal (z-score),[29],-0.152
same,glycan array binding signal (z-score),[30],-0.141
same,glycan array binding signal (z-score),[31],-0.129
same,glycan array binding signal (z-score),[32],-0.122
same,glycan array binding signal (z-score),[33],-0.111
same,glycan array binding signal (z-score),[34],-0.148
same,glycan array binding signal (z-score),[35],1.34
same,glycan array binding signal (z-score),[36],0.007
same,glycan array binding signal (z-score),[37],-0.063
same,glycan array binding signal (z-score),[38],-0.144
same,glycan array binding signal (z-score),[39],-0.117
same,glycan array binding signal (z-score),[40],-0.154
same,glycan array binding signal (z-score),[41],-0.142
same,glycan array binding signal (z-score),[42],-0.126
same,glycan array binding signal (z-score),[43],-0.142
same,glycan array binding signal (z-score),[44],-0.16
same,glycan array binding signal (z-score),[45],-0.163
